Test results published in US20210061922A1 (published 2021).

Target: Her2 (human, UniProt P04626 partial chain)
Assay: SPR

Kd: 0.74 nM
B1: Bispecific (switchblade): trastuzumab light chain - protease site - antiCD16 - linker - trastuzumab heavy chain (bispecific antibody)
chain: DIQMTQSPILLSASVGDRVTITCRASQDVNTAVAWYQQRTNGSPRLLIYSASFLYSGVPSRFSGSRSGTDFTLTISSLQPEDIADYYCQQHYTTPPTFGAGTKVEIKRTVAAPSVFIFPPSDEQLKSGTASVVCLLNNFYPREAKVQWKVDNALQSGNSQESVTEQDSKDSTYSLSSTLTLSKADYEKHKVYACEVTHQGLSSPVTKSFNRGECGGAGGSTSTSGRSANPRGGEVQLTESGGEDVQAGGSLRLSCSASGLTFSSYNMGWFRRAPGKEREFVASITWSGRDTFYADSVKGRFTISRDNAKNTVYLQMSSLKPEDTATYYCAANPWPVAAPRSGTYWGEGTQVTVASGAGAS[about 200 residues not given here]
